Reference: publication PMC10726135
The list shows a part of the results. At the low end of the ranking the order means little. Measured with an extract: partners may take part in the binding.

What follows are sequences tested against T1, HNF4alpha8 (COS-7 nuclear extract) (UniProt P41235-5) (assay: protein-binding microarray). Conditions: COS-7 nuclear extract on double-stranded Agilent 4x180k PBM; binding buffer, salt, pH and temperature not given; high values mean tight binding; double strand, one strand shown; sequences stand for … in …GCCTAGGGAGATTAGAGTATCGGTCGA.
T1 sequence: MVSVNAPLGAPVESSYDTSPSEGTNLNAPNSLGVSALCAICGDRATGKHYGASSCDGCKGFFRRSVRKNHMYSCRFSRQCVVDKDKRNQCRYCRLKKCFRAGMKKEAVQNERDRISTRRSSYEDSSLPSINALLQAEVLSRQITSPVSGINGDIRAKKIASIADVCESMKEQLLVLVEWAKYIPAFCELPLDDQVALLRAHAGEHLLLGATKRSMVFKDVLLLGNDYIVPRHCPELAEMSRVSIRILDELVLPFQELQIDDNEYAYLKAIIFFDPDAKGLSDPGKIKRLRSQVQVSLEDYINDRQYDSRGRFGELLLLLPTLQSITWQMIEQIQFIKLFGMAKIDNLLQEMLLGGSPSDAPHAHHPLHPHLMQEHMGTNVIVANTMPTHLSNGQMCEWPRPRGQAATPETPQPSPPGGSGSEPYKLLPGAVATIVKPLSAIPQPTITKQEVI

Sequence	binding signal (log2 normalized intensity)
TGTGGGCGGGTGCAGCTTCCACCTGCAAGG	-0.674
AGTCCATGTGTTAAATAATAACACTCCCAT	-0.441
TGATAAGGAAACTTAAGTCTCAAAGGTCAG	6.45
AGAATCATCTTTGAGCTGGATGACCTTTGT	8.24
TTTCTCAGCTCTCCTCTGCCTCCAGCTGTT	-1.3
AAGGAATTTAGCCTTTAACCTGCAGTTTCC	2.31
TTATGAGGCCTAACTGGCTTTGTCTGCTCA	-1.28
CGAGTCCCTGCTGTGTCACGTACCGGCTAG	-0.767
GTGTGCTTTGTAGCACTTTGGACCTCCACT	5.13
GAAACAGTCACAGTTATCAGACAGAGGAAT	-1.34
AACAAATCCAGGCAGGACTCTGTCCTGGGC	0.361
CCATCAAGGATCAAGGACCTGCTCTGGGGC	-1.27
GAAGACTTCGCTGGAATGTCACAGGGATTA	-1.08
TGAGGCCAGACAGGGGGGCGCCTACGGACG	-1.49
GGTCCTACTCACACTCAAGGCAAGAGAGTC	-1.4
ATCTAAGCTGGACTTTGAACTTCATGTGTG	8.61
CCAAAGTCCAAAGTCCAGTCTTATCTGAGA	7.93
TTAGGGGTTAGGGTTAGGGTTAGGGTTACG	1.17
CCACATTCTCCACTGGGAAGTAGAAGAAAG	-1.39
TTATAATCGCAGAATAAACGCTGAAGTCTC	-1.26
AGGCTGAGCCTAGGAGTTCAATGCTTCAGT	-0.187
CTGTTCTGTTCCCTGGACTCAGCTCCCATA	1.78
TTGATCAAAGGTTGGACTGAGGACCACATG	2.78
CCAGAGCCAAAGGGCATATTGACTGCCCCA	2.74
AACGCTAGACACTGGGGACTAGTAGAGTGG	-1.33

Sequence	binding signal (log2 normalized intensity)
AGGAATCCTGACCAGGGGCCAGCAAGAGGT	-1.38
TGTCTTTTCTCCCCTGACTACCAGCCAGTA	1.09
CAGTGAACAAAACATGGATTTTGGAGCCAA	0.525
GGTCCCTGGAGATAATAGTGGCTGAAAGTA	-1.25
GGAAGGGCTTTATGACCAGTGTGTTGTGCT	0.182
GATGTTGGGAGGAGTGGACTTTGATCTCAG	9.38
AAAGAGACATCTGGGAACAAGTTCTGCAGA	-1.31
TTTCAATTACAAAGCAACACAATGCATATC	-0.943
CATCTGCCCAGCAGAGCAGTTTAGAGAAAG	-1.31
GTTAGACTACTTATCTCCAAGACCCTTCAT	0.521
GAGGAATCCCATTCCCTCTAATCTGGGACA	-1.2
AGTCCCTGAGTATTATCTTTTTAATCAATA	-0.318
GGGTGAGTGCATGAATCAACTGTTGTGGAC	1.79
CATGGATGACCTCTTTTAGTAACTGACTTT	1.96
AGCTCGCTCAGCTGGTTGCCCCTTTGACCC	8.48
GGACTTTGGTCTGCTGAGTCTCATGATTAG	5.1
GAGCAGGGAGCGAGACGCTGAGCTTCTGCG	-1.47
CTTTGGCCAAATAATAGCATTGTAGTAATA	0.658
TTTGAACTGTGTTGCAAATTATTACTCCCA	1.49
GGCATGCATATGAGTAATGTGAAGACTTCG	0.667
GGCCTCCAGAAGGAATGCAGCCCTGCCACT	-0.835
AGTTTCCCTTGATCAAAAACTGCCTAAATC	-1.1
TAAATACTTCTCCTCTTATCTTCAGGTTTG	1.12
GAGCAGTCCTGCACATGAATGATCAAAGGT	2.35
ATGTGTTTGCTTTTTACCATCTCCAACATG	0.341

Sequence	binding signal (log2 normalized intensity)
TACCGGCTAGACAAACAGCTTCTGTCCTAA	-1.39
CCATAGGCAGCTTCAGGATGAAGGCTGCTG	-1.22
GAAGATCGCAGACTTTGGACTCTGCAAGGA	6.68
TCTTTCAGGGTGGGAAAGGAATGTAATGTA	0.874
ATCTTGGGTTAGGCCTTTAGAGGATTTACT	-1.25
CTTTAGATTCTTACAGGCAATTGATAATGA	0.6
TTTTCTGCTGCATGCCACACATTGCTGCCA	-1.26
TCGTCCAGTTACTGAAAGGGAACCCTAATC	-1.14
CAGGCATTAACCCTTTAGTGCCTGGATCTT	1.09
ATCCCTGCAGCCCACAGCCCGCTGTGCCTG	-1.43
AAATTGCTCAGTGCCTTCTCTAATGACTGA	-1.18
TGTCAGACAAACAGACTTCACACTAGAAGA	-1.35
CTCCCTGCATTCCATTTCTGCCCCTTGCTC	4.04
AGGCTTCTAGAAGAGGTTAAAGACCTTTGG	4.82
ACAAGGGTACCAACAGGTCCAAGGTTCAGA	5
ATAAAGCAGGGAGAGTTGCACCCAGGCCGT	-1.4
TCAAGGATGTTTATACAGCCTTGGAAGACA	-1.41
TCTTTCTCCAACTGCTCCTCTTCAACTGAT	0.58
AGATGAAAGCTTCTGCGGAAATAATTGATT	-1.05
TATGATCTTTCATTCCTATTGTCCCATCTC	2.12
GGAGGCACTCATGGTGTTTGCTTTGTGAAG	0.272
AAGACCCAAGGCGTATGAAGCTTTGACCCT	5.29
AACCAGAGAATCTCTCATTTCAAGGCTGGC	-1.35
CCACCCCCTCCACCCCTGCCTTTCATTCTC	4.71
GGGACAGCACTGGCATGCAGCAGGGGAATG	-1.23

Sequence	binding signal (log2 normalized intensity)
GATGAGAAACTTATTGTGAACTGGAGCAAA	0.122
ACGTCAGAACTGTCCTTTAACCTCCCTGCA	2.93
TCTTCCAGTTCATTTCTGTATCCCTGTTAT	1.97
AAAAGCAGCCATTAAGAAGCAAGTGTTTAA	-1.25
GCACTATTATCCCCCTATCCCAAGACATCA	4.64
AATAAAGGAACTTACGAAGATAAATCAGAA	-1.03
TTTGTCACTGCAAATGATGTCTCTCATTGG	0.572
CCAGCCCACTTACCACCCACAGAGGGGGTT	-1.3
AAGAAGAGCTCAGTCACAGCAGTGGACTTT	7.41
CCCATTAGAACAAAGATCAAAGCAGTATCA	-0.868
GACTGGGTGAGGAAGGGTATGCATGGAATG	0.981
CGGTGTATGCTCTCAGTGCTAACACGTGGC	-0.551
TGAAGGTGAATTTCAAGAATCTAATCAGGC	-1.34
CAAGGTACAGAGAGTTTAAGTAACTTCTCA	-1
AAAGTGCAACTACAAGGAGCAGCCTAGTAA	-1.37
TGACCACGGGGGCCGCTCTCCCTCCAGGCC	-1.35
GTCAGATTTTATTTACACACAGGGAGATGG	-1.09
GAGTGGTGACTGAAGTCCAACCCTCCGTTT	1.92
AATAGTAAAGTATGTTTGTGCTGGTTACTA	0.9
GGTCGGGCGCGCGGGCCGGGAGGGGGACGC	-1.28
TTTCCCTGCCAGTTCCATGTAATCCCATGC	-0.777
GCCTTGCTTATCTGGGAGGGGGAGGTTTTG	0.305
TGGTGTGAACCAGGGTTAAGGTTTTGTAAC	1.59
GGTGATTGGTGAGTCTTAGGGAGGGGCCAG	-1.11
AGCTTGGCCAAAGTACGCTCCACCCCTCAG	3.36

Sequence	binding signal (log2 normalized intensity)
TAAGAGTGAACTCTGACCATGCCTATAAAT	2.44
ATCTCTCCTAGAGAAAGGGGCTTAGGGAGG	-1.34
CCTGTGGGGGAGGTGCAGAGAGGGGCAGGG	-1.34
AGCAGGGCGTGGACTTCGCTCCGCCGCTAG	4.76
AGGGCAAAGGTCACCAGCTAAGCTGTTACT	5.83
ACAGTCCAGTGACTATCTGCTACTTAAGAT	-1.33
GGGAGCTCCCTCTGTTGGTGGCACAGGGAA	-1.17
GTGGGAGGTGAGGAAAACGGAGACAGAAAC	-1.28
GGGGTGGGGACCAGTGGGGGGAAGCTCTGT	-1.19
TCATCTGAACTCTGACCAACGCCTCCCTCC	2.6
ATGGAGAGTGGAAGACTGCACCAAAATAAA	-1.32
ACTACCTCAAAGTTTTGTTATCTCTGCTTG	0.834
TGAAAAACACTGGATAAAGTCCATATTCTT	3.08
CACACCCCAAAAGGTCAATCTGGATTGTAC	3.66
TCTACTCCCTGTTCTTACACCTGCTCCCCT	2.97
TCGGGACAAGAGGAATGTTCATTCATTCAC	-1.26
GATTGACTCAGGCATTCTGACCTTTGTCTC	7.94
TTCATCTGACTGGAAGAGCCTGCAAGGGAG	-1.31
TTCTTAGAGAGTTGGGCAAGACTCGTGAAA	1.32
GTCTATGTGTGCTTTCTTCATTAACTCTTG	0.169
TGCGGCTTCTCATACTACTGTACTTTGCTC	5.94
GAGCATTTCTCTCCTAAGCAGGACAGCAGA	-1.24
TCAGCCCACAGGTCAATCCAGGTTGCTGCC	0.332
GAACAATGTCTAATGGTGGAATTTCAGTCA	1.08
CAGCATCTTCACCGTAAAGCCACCCCTTTC	2.59

Sequence	binding signal (log2 normalized intensity)
ATACTTTGCTCTCCAAATTGGGGCCAACAG	-0.406
ATTAGAGCACAATGTGGGGAGCACATGGCA	-1.08
TTCATTCTTTAAGGACCACATCAAAGGTCA	5.32
GATGAGTGACCTTTGACCTCAGAGAGCCGG	9.88
GTCCTTTAACAAGGACAAAGGTCAACAAAC	6.77
TAACTTGAGTGTGCACCCTGGTCTCTCTTA	0.729
ATTTTCTCACTCTAAAGGAAGGGATTATAA	-1.25
AGTGAACTCAAAGAAAAGTTATGTTGGGCA	0.603
TTCTGTCTTTTTAATAGTGCATTATCAGTA	1.23
CTAGCCACAGGGGAAACACAGACTCCAAAG	-1.25
GGACTGAACAGATATTGGCCAAAGGGCACA	3.64
CTACTTTTAAAACGCTCAAATAAGCCTTGC	-1.26
AGCATCTTATCAGCAGGAGACCTGAAACTA	-1.09
CACTTTCCACTCTCTACTGATATGTCCTCC	1.83
TTTGCCCTCAAGGAGTTTTAGATTAGGAGA	-0.372
GCCTGAGCATCTTATCAGCAGGAGACCTGA	-1.28
TTGAGTGGTTTACTGCGTCACAAGTCACAA	-1.35
GCTGCCATCCCACATTCCACAGACTCACTT	-1.33
GCAGATGGGCAGCACTGTGATTTGTTCAGG	-0.302
AGAGCCGGGAAAGGCCGGAGGGCGGGGCGG	-1.21
